Assay results taken from publication PMC4336329 (PLoS ONE, 2015).
The campaign covered roughly 310,000 compounds. About 14,000 (4.5%) showed an effect of 50% or more. The effect is printed as a negative number. Some of the results follow.

Biological target: human ether-à-go-go-related gene (hERG) potassium channel (human, UniProt Q12809)
Experiment: primary screen, population patch clamp on CHO cells stably expressing hERG
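Note: peak tail current of the secondary pulse compared with the same well before compound.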

human ether-à-go-go-related gene (hERG) potassium channel, sequence (Q12809 whole entry, looked up): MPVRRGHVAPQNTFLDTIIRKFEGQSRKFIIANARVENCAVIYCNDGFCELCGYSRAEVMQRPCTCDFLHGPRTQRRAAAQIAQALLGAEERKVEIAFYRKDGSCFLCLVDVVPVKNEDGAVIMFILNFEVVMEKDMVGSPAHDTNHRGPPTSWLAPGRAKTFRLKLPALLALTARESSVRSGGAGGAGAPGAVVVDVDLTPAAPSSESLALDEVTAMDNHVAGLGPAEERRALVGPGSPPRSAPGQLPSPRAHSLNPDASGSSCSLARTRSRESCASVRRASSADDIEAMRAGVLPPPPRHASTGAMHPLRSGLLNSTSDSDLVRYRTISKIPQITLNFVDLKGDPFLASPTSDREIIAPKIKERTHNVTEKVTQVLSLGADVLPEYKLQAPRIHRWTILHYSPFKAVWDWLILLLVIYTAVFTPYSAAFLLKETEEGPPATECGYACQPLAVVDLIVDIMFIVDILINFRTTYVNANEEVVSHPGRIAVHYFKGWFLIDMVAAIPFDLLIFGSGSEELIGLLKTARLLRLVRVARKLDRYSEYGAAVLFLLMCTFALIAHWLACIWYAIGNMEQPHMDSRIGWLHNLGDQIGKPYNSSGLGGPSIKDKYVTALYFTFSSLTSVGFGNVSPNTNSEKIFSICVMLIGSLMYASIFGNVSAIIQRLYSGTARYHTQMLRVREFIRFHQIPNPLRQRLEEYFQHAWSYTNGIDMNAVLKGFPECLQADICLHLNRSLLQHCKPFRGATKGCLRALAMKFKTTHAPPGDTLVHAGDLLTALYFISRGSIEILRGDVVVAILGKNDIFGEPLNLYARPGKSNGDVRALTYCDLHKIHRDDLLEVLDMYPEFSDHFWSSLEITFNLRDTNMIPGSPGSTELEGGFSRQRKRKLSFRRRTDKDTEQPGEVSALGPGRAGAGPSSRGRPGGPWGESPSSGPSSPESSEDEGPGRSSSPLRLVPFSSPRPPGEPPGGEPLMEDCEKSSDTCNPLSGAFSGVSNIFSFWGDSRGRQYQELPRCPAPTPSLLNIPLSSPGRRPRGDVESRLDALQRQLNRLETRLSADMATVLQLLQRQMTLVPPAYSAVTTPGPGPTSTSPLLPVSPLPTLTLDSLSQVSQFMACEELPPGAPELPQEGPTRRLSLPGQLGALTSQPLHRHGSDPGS

In order of falling “hERG current change (%, negative = inhibition) at 10uM” value:
1. Cc1cc(NC(=O)CSc2nnc(-c3ccccc3C)n2C)no1  26%
2. CSc1ccc(C2=CC(=O)C[C@H](c3ccc4c(c3)OCO4)C2)cc1  25.8%
3. COc1cccc(NS(=O)(=O)c2cc3[nH]c(=O)c(=O)[nH]c3cc2C)c1  25.1%
4. CC(C)CN(CC(C)C)S(=O)(=O)N1CCC(C(=O)NCc2ccco2)CC1  19.5%
5. O=C(c1ccc(OC2CCN(CCO)CC2)cc1)N1CCCC1  18.1%
6. CC1(C)Cc2nc3sc(C(=O)NCCCO)c(N)c3cc2CS1  18%
7. CCOC(=O)N1CN(C(=O)OCC)CN(C(=O)OCC)C1  17.6%
8. Cc1c(N=NC2=C(O)CC(C)(C)CC2=O)cc2c(c1[N+](=O)[O-])C(C)(C)CC2(C)C  17%
9. O=Cc1cc(N=Nc2ccccc2Cl)ccc1O  16.3%
10. CCc1cc(=O)oc2cc(O[C@@H]3O[C@H](CO)[C@@H](O)[C@H](O)[C@H]3O)c(Cl)cc12  16.3%
11. CN(Cc1ccccc1)C(=O)CSc1nc2c(c(C(F)(F)F)n1)CCc1ccccc1-2  14.8%
12. CCCCNc1nc2c(S(=O)(=O)c3ccccc3)nnn2c2ccccc12  14.3%
13. COc1cccc(CN(C)C(=O)C2CSC3(C)CCC(=O)N23)c1OC (stereo not shown)  12.5%
14. COc1cc(/C=C\C(=O)NCc2ccc3[nH]c(C)cc3c2)cc(OC)c1OC  12%
15. Cc1[nH]n(-c2ccccc2)c(=O)c1CCOC(=O)c1ccc(C(F)(F)F)cc1  11.6%
16. CN1C(=O)CSC1=S  10.4%
17. CN1CCc2c(sc(NC(=O)c3ccc(S(=O)(=O)N4CCCC4)cc3)c2C(N)=O)C1  10.3%
18. O=C(CNc1ccc(Br)cc1)c1ccccc1  10.2%
19. Cc1ccc2[nH]c3nc(SCCN4CCOCC4)nnc3c2c1  8.91%
20. CC(CCc1ccccc1)OS(N)(=O)=O (stereo not shown)  8.74%
21. O=C(NCCCn1ccnc1)c1nc(Cn2cc(Br)cn2)no1  6.06%
22. COC(=O)N1CCN(CCc2ccccc2)CC1  5.83%
23. O=C1CSC(c2cccc([N+](=O)[O-])c2)N1Cc1ccccc1 (stereo not shown)  5.65%
24. COc1cc(OC)cc(C(=O)NC(=S)N(Cc2ccccc2)C(C)C)c1  5.17%
25. O=S(=O)(Cc1ccccc1)NCC1CCCO1 (stereo not shown)  4.08%
26. Cc1ccc(NS(=O)(=O)c2cccc(C(=O)O)c2)cc1S(=O)(=O)N1CCCCC1  3.3%
27. O=C(NNC(=O)C1CC(=O)N(Cc2ccccc2)C1)c1ccc(F)cc1 (stereo not shown)  2.46%
28. N#CCCN(C(=O)c1ccco1)c1ccccc1  2.09%
29. Cl.Fc1ccc(CCNCc2ccccc2Cl)cc1  1.24%
30. Cc1csc(Sc2ccc(C(=O)OCC(=O)Nc3ccc(F)cc3[N+](=O)[O-])cc2[N+](=O)[O-])n1  0.517%
31. Cc1cc(NC(=O)CCCC(=O)O)nc(C)n1  0.176%
32. CC1(C)[N+]([O-])=C2C(=[N+]([O-])C1(C)C)c1ccccc1/C2=N\O  0.00468%
33. CC(=O)Nc1ccc(NC(=O)C2CCN(C(=O)c3ccc([N+](=O)[O-])cc3)CC2)cc1  -0.926%
34. O=C1c2ccccc2S(=O)(=O)c2cc(C(=O)N3CCCC3)ccc21  -1.93%
35. CCCCN(Cc1cc2cccc(C)c2[nH]c1=O)S(C)(=O)=O  -2.84%
36. COC(=O)N1C(=O)[C@@](CC(C)C)(c2ccccc2)N1C(=O)OC  -4.25%
37. Cc1ccc(C(=O)NCCN2CCCC2)cc1.Cl  -5.44%
38. CCOC(=O)[C@@]1(C#N)[C@@H]2C=CC(C(N)=O)=CN2[C@@H](C(N)=O)[C@@H]1c1cccc(Cl)c1  -5.84%
39. CC1CN(C(=O)c2ccc(Cl)c(S(=O)(=O)NCc3ccco3)c2)CC(C)O1 (stereo not shown)  -6.14%
40. Cc1ccc(Sc2c(C)nn(C(=O)CNS(=O)(=O)c3ccc(F)cc3)c2C)cc1  -6.2%
41. NC1=NC(=Nc2ccc(Br)cc2)c2ccccc21  -6.61%
42. O=[n+]1cc(-c2cc3ccccc3o2)n([O-])c2c1CCCC2  -10.6%
43. Cc1cccc(C)c1NC(=O)CN1CCN(CC(=O)c2cc(C)n(C3CC3)c2C)CC1  -12.4%
44. Fc1cccc(Cl)c1CSc1ccc2nnc(-c3ccccn3)n2n1  -13.5%
45. CCN(CC)C(=O)Cn1cc(S(=O)(=O)CC(=O)NCc2ccc(C)cc2)c2ccccc21  -15.3%
46. CN(CC(=O)Nc1ccccc1Cl)C(=O)COC(=O)/C=C/c1ccccc1  -15.7%
47. Cc1ccsc1C(=O)OCC(=O)NCCCc1ccccc1  -20.8%
48. CCCOC(=O)c1cccc(NC(=O)COc2ccc([N+](=O)[O-])cc2)c1  -26.9%
49. COc1cc(/C=C/C(=O)Nc2nnc(CC(C)C)s2)cc(OC)c1OC  -27.8%
50. CCc1ccc(-c2cc(C)no2)cc1S(=O)(=O)Nc1cccc(CN2CCCC2)c1  -30.4%
51. CC(C)N(Cc1cn(C)nc1-c1cccc(Cl)c1)Cc1nccn1C  -37.2%
52. CN(CC(=O)Nc1cccc(F)c1)C(=O)CCCN1C(=O)c2cccc3cccc(c23)C1=O  -38.6%
53. O=C1Nc2ccccc2C(=O)N2[C@H](c3ccc(F)cc3)[C@@H]3C(=O)N(Cc4ccccc4)C(=O)[C@@H]3[C@H]12  -42.5%
54. CN1CCN(CCC(=O)N2c3ccccc3Sc3ccc(Cl)cc32)CC1  -48.9%
55. Oc1ccc(-[n+]2c(-c3ccccc3)cc(-c3ccccc3)cc2-c2ccccc2)cc1.[O-][Cl+3]([O-])([O-])[O-]  -71.3%
